Blank lines part the entries; values can stand above or below the compound they belong to.
Legend:
[1] = test system: H1975; assay: Crystal Violet cell proliferation assay, H1975
[2] = test system: A549/DDP (Cisplatin Resistant); assay: Crystal Violet cell proliferation assay, A549/DDP
[3] = test system: A549 parental; assay: Crystal Violet cell proliferation assay, A549
[4] = test system: H1650; assay: Crystal Violet cell proliferation assay, H1650; conditions: H-1650 (data not shown), Gefitinib and Icotinib, RO4929097 10-20 uM
[5] = test system: 95D (Met); assay: Crystal Violet cell proliferation assay, 95D; type: cell-based, human; conditions: single agent, 72 h, mean ± SEM
[6] = test system: 95C (Non-Met); assay: Crystal Violet cell proliferation assay, 95C; type: cell-based, human; conditions: single agent, 72 h, mean ± SEM

Compound: COc1cc2ncnc(Nc3ccc(F)c(Cl)c3)c2cc1OCCCN1CCOCC1 [Gefitinib]
Gefitinib concentration giving excellent TKI effects (crystal violet assay) ([1]; Example 4 lung carcinoma cell line, with the sensitizer DZ1-SIM amide at about 5 uM): about 0.5 uM

Compound: CC(C)(C(=O)NCC(F)(F)C(F)(F)F)C(=O)N[C@@H]1C(=O)Nc2ccccc2-c2ccccc21 [RO4929097]
Sensitization of cells to TKI by RO4929097 ([1]; H-1975, Gefitinib and Icotinib, RO4929097 10-20 uM): did not respond consistently
Sensitization of cells to TKI by RO4929097 ([2]; A549/DDP, Gefitinib and Icotinib, RO4929097 10-20 uM): did not respond consistently
Sensitization of cells to TKI by RO4929097 ([3]; A549 treated with Gefitinib, RO4929097 10-20 uM): responded after successful sensitization
Sensitization of cells to TKI by RO4929097 [4]: did not respond consistently

IC50 ([2]; read-out: IC50 A549/DDP (Cisplatin Resistant), single agent, 72 h, mean ± SEM): 10.2 ± 1.2 µM
Compound: DZ1-Cisplatin ester
IC50 [5]: 13.7 ± 1.3 µM
IC50 [6]: 2.4 ± 1.1 µM
IC50 ([3]; read-out: IC50 A549 parental, single agent, 72 h, mean ± SEM): 1.8 ± 1 µM
